Data from the supplement of paper PMC3334620.
The full ranking holds about 33,000 sequences; the median of “E-score (-0.5 to 0.5)” is about -0.016, and the highest 2% start at about 0.32. This is one part of the list.

What follows are sequences tested against T1, Stp1 (UniProt B3LFK1) (assay: PBM E-score (8-mer binding enrichment) (E-score (-0.5 to 0.5)); higher = stronger / more preferred TF binding; most listed sequences are background and not binding sites). Settings: protein concentration: 200 nM; construct: GST-full length.
T1 sequence: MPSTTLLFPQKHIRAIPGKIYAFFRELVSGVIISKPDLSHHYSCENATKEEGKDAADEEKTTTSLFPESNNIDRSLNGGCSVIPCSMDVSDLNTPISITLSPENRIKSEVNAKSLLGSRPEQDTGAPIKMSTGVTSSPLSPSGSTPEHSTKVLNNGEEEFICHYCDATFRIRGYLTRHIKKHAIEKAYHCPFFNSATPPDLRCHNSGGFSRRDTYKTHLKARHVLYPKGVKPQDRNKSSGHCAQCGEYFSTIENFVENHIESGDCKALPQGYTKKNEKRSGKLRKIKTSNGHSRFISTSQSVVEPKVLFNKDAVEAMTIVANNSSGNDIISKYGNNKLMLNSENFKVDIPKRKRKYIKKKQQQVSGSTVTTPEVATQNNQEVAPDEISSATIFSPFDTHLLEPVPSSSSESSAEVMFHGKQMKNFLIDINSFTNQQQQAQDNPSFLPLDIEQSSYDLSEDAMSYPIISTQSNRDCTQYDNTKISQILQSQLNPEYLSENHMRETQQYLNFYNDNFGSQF
How it was run: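 GST-tagged yeast TFs (full-length or DNA-binding domain) were made by PURExpress in vitro transcription/translation and applied at about 100-200 nM to universal all-10-mer Agilent arrays. The arrays were made double-stranded by primer extension, on fresh or once-stripped slides. Bound protein was detected with fluorescent anti-GST, and scans were normalised with masliner. Each ungapped eight-base word, pooled with its reverse complement, received an E-score (modified Wilcoxon-Mann-Whitney statistic) from the Universal PBM Analysis Suite.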

Sequence	PBM E-score
GCTACAAA	-0.0267
ATGCAACC	0.0262
ACGTTGAA	-0.0226
TGTCAGAA	-0.0187
AGGTAGGG	-0.261
AAACATCA	-0.00388
AGACGTTA	0.00873
GACCTTGA	-0.162
AGAATTCC	0.0919
ATCGGCTC	0.136
ACTTCGAG	0.101
GGTGCCAA	0.057
ACACTTGG	-0.00274
AATTCGAA	0.0624
GATAGTTA	-0.112
CTGGTCGA	-0.275
AGGAGCAA	-0.247
CTAGCTCA	-0.138
CATGGATC	-0.11
AGTATGCC	0.128
GCCCGATA	-0.107
CCGCAAAG	0.181

Sequence	PBM E-score
CACGTGAG	0.231
ACGTCTCA	0.0523
GCACATAC	0.0469
ACGGTTTC	-0.00454
ACCTAGCA	-0.213
CCAAAGGC	0.0337
AAGATATG	0.213
GAAGGCAA	0.218
TCCGAGCA	0.0474
AATCCAGG	-0.0627
AATGCGAT	-0.0204
ACAGACGA	-0.0204
CGTAGTAA	0.041
AGGGCCAA	-0.203
GAGTGGAA	-0.00653
CCGTCACG	-0.0442
AGCCAATC	-0.177
GCTATGAC	-0.135
ACGTCAGC	-0.0506
CCACTCTC	-0.0818
AGGCTCGA	0.087
CCGACCAA	-0.0204

Sequence	PBM E-score
GGGCAGCA	-0.122
ACAGTCGC	-0.109
AGCCCATC	-0.0701
ACGACACT	-0.109
ACGTCGTA	-0.167
ATTCTAGA	0.133
ACGAGTGG	-0.143
AGTGATTG	-0.018
CCGGTGGA	-0.22
CCACGGCG	0.478
TGGCCCAA	0.0351
GCAAGACA	0.124
GTTAATAA	0.151
CTGTCGAC	-0.13
CCAGGTCG	-0.263
GAGGAAAA	-0.0008
CGATCATA	0.00595
CAGGTCAA	-0.183
GGACGCCC	-0.158
TGGTGAAA	0.0915
AACGGTCT	-0.21
AAACACTG	0.0749

Sequence	PBM E-score
AAGGTAGG	-0.222
CGCCGCCC	0.346
CTGCAGCA	-0.12
CTTCAGTA	0.0999
CAGGCAAG	-0.0138
GCATGCAA	0.201
ATCTGCGC	0.129
ACGCGCTA	0.0238
TAAAACCA	0.0806
GGATAGCA	0.0988
CTTCCTAC	-0.225
CTGTTAGA	-0.0404
GGTCAGGA	-0.203
GGGTCTAC	-0.0721
ACCTAAAT	0.0152
CACGGATC	0.286
GAACCAGC	-0.0872
ATAGTGTG	0.00158
GCACCTGC	0.101
CTAACTTA	0.197
GCCAAAGC	-0.142
AATGATAG	0.073

Sequence	PBM E-score
ATCGTTTG	0.104
GACTACAC	0.00032
GTGAGTGA	-0.139
ACCCTAAC	-0.0563
ACTAAGCG	-0.0972
ATCGCAGA	-0.0303
TACGGAAA	0.151
CGTGCCCA	0.235
CACAGGGC	0.0826
CACGGCAA	0.469
AACATCAG	0.0591
ATCTCAGC	-0.0455
CGCATTCC	-0.315
AAAGCCAT	0.155
AAATGGTC	-0.035
TACCGACA	0.0897
GCCCGTGA	-0.0631
CGGTAACA	0.122
CCTAGATA	-0.0598
GCGAGCCC	-0.0404
AATAGTCG	-0.0177
